Measurements as given in article PMC6030096, “Synergy of Physico-chemical and Biological Experiments for Developing a Cyclooxygenase-2 Inhibitor” (Scientific Reports, 2018).
Where two headings read alike, the source gives them in different places.

Legend:
[1] = test system: acetic acid induced writhings in rat; assay: Acetic acid induced writhing (analgesic activity)
[2] = Acute toxicity study (oral, 14 days); details: mouse, in vivo, po
mice = assay: Acute toxicity study (oral, 14 days)
[3] = test system: carrageenan induced paw edema; assay: Carrageenan induced paw edema, effect on pre-existing inflammation; type: in vivo, rat; details: 10 mg kg^−1 ip 60 min after carrageenan
Method: Paw thickness (mm) was used as an index of inflammation and measured at 30 min, 1 h, 2 h, 3 h, 4 h, 5 h, 6 h, 8 h, and 24 h after the carrageenan injection.
Paw thickness (mm) was used as index of inflammation and measured at 30 min, 1 h, 2 h, 3 h, 4 h, 5 h, 6 h, 8 h, and 24 h after the carrageenan injection.

[4] = test system: COX, LOX, nitric oxide pathways and calcium channel; assay: Mode of action study in acetic acid writhing (pretreatment with substance P, L-arginine, L-NAME, A23187); type: in vivo; details: rat
Method: All the doses were administered intraperitoneally.
Substance P is known for activating COX and LOX[30].
All the drugs were administered intraperitoneally.
For investigating the involvement of calcium channel, the animals were pretreated with A23187.

[5] = Rat pharmacokinetic study; type: in vivo; details: for half-life: ip, 10 mg/kg
Method: The blood samples were withdrawn from jugular vein at an interval of 30, 45, 60 min and 2, 3, 4, 6, 8, 11, 24 h. The plasma fraction was obtained by centrifugation at 4 °C, 8000 rpm for 6 min and stored at −20 °C. The samples for LC-MS were prepared by using protein precipitation method.
The in vivo pharmacokinetic properties were evaluated using male wistar rat (250–300 g). The compound at 10 mg kg^−1 dose was suspended in 0.1% CMC and administered intraperitonealy to the rats. The animals were anesthetized with ketamine (50 mg kg^−1 i.p). The blood samples were withdrawn from jugular vein at an interval of 30, 45, 60 min and 2, 3, 4, 6, 8, 11, 24 h of drug administration and collected in heparinised tubes. Samples were withdrawn in triplicate (3 samples/time interval). 100 μL of blood sample was withdrawn at each interval from one animal. The plasma fraction was obtained by centrifugation at 4 °C, 8000 rpm for 6 min. The samples were stored at −20 °C. The samples for LC-MS were prepared by using protein precipitation method. 100 μL plasma sample was taken in 1.5 mL tube and vortex for 3 min. 300 μL acetonitrile with internal standard was added to the above tube and vortex for 5 min. The contents of the tube were centrifuged at 4 °C, 16000 rpm for 40 min. The compound with initial concentration 3 mg mL^−1 followed by serial dilution was used for obtaining standard curve. LC-MS was performed with Dionex ultimate 3000 HPLC system attached to Bruker MicroTof QII mass spectrometer. 50 mm, 5 μm PRP C18 column was used for HPLC and the gradient mobile phase was consisting of water and acetonitrile (each containing 0.1% formic acid). […] The column eluent was introduced to the ESI source of mass spectrometer operating in +ve mode. The different pharmacokinetic parameters such as t½ lives (min), AUC (area under curve), Cmax (µg/ml), tmax (min), mean residence time (min) were determined following non compartmental analysis in PK solver software.

[6] = male, Wistar, plasma, 10 mg/kg ip

## O=C1NC(=O)C(=Cc2cn(C[C@H](O)Cn3c4ccccc4c(=O)c4ccccc43)c3ccccc23)C(=O)N1 [(S)-3a]
[1]; 10 mg kg^−1 ip
  decrease in number of acetic acid induced writhing: 50%
[1]; ip
  effect on number of acetic acid induced writhing vs control: significantly decreased
[2]
  MTD at 14 days: 2000 mg/kg
mice; oral 2000 mg kg^−1
  serum creatinine, BUN, uric acid, creatinine kinase, ALT, AST, ALP, cholesterol vs untreated: did not produce any significant alterations
mice; oral 50, 300 and 2000 mg kg^−1, 14 days
  behavioural abnormality or mortality: No gross behavioural abnormality or mortality
mice; oral, 14 days
  body weight vs normal animals: did not observe changes
mice; oral, day 14
  histological sections (myocardium, kidney, liver) vs control: no remarkable alterations
[3]; after 5 h of treatment
  effect on pre-existing paw edema (paw thickness): decrease paw edema
[3]; after 24 h of treatment
  duration of decrease in paw edema: sustained even after 24 h
[4]
  analgesic effect after pretreatment with L-arginine, L-NAME and A23187: did not affect
  analgesic effect after pretreatment with substance P: attenuated the analgesic effect
[5]; 10 mg kg^−1 ip
  t1/2 (half-life): ~ 7.5 h
[5]; 10 mg kg^−1 ip, 24 h
  concentration of the compound in the serum after 24 h: appreciable concentration
[5]; [6]
  AUC(0-t): 347 µg·h/mL
  Cmax: 26100 ng/mL
  Tmax: 4 h
[5]; male, Wistar, plasma, 10 mg/kg ip, read-out: AUC 0-inf_obs (converted)
  AUC(0-inf): 399 µg·h/mL
[5]; male, Wistar, plasma, 10 mg/kg ip, read-out: MRT 0-inf_obs (converted)
  MRT inf: 11.7 h
[5]; male, Wistar, plasma, 10 mg kg^−1 ip, read-out: t1/2 (half-life) (converted)
  half-life: 7.5 h
[5]; male, Wistar, plasma, 10 mg/kg ip, read-out: t1/2
  half-life: 7.57 h
